Reference: the supplement of paper PMC6609913
Structures can show the parent of a compound that is named as a salt. ± gives the standard deviation of the averaged measurements. Whole data set: some 1,300 compounds, median “normalised cell viability” near 1, cut for the lowest 2% near 0.14. The list shows a part of the results.

Test system: V-C8 (BRCA2-deficient hamster cells)
Assay: normalised cell viability (fraction of plate median); higher = more viable cells (less toxic)
Conditions: 5 µM
In short: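 Library drugs, held as 10 mM stocks in DMSO, were diluted to 5 μM in 100 μl medium and added to 96-well plates of V-C8 hamster cells, either lacking BRCA2 or with BRCA2 restored, 24 h after seeding. Plates ran for 3 days (screen 1) or 6 days (screen 2), alongside solvent-only wells. Viability came from a resazurin readout, median-plate normalised, as the mean of triplicate wells.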

Row | SMILES | normalised cell viability (treatment time: 3 days) | normalised cell viability (treatment time: 6 days)
1 | CNCC[C@@H](Oc1ccccc1C)c1ccccc1 [Tomoxetine hydrochloride] | 0.906 ± 0.033 | 0.926 ± 0.066
2 | Cc1c(NC(C)C)c(=O)n(-c2ccccc2)n1C [Isopyrin hydrochloride] | 0.949 ± 0.022 | 1.06 ± 0.028
3 | CCCNC(C)C(=O)Nc1c(C)csc1C(=O)OC (stereo not drawn) [Articaine hydrochloride] | 1.03 ± 0.024 | 1.06 ± 0.084
4 | NCCc1cc[nH]n1 [Betazole hydrochloride] | 1.04 ± 0.038 | 1.09 ± 0.025
5 | COc1cccc(N(C)C(=S)Oc2ccc3c(c2)CCCC3)n1 [Liranaftate] | 0.805 ± 0.038 | 0.74 ± 0.046
6 | CC(C[N+](C)(C)C)OC(N)=O (stereo not drawn) [Bethanechol chloride] | 1.01 ± 0.023 | 1.04 ± 0.034
7 | COc1ccc([C@@H]2Sc3ccccc3N(CCN(C)C)C(=O)[C@@H]2OC(C)=O)cc1 [Diltiazem hydrochloride] | 1.07 ± 0.053 | 0.959 ± 0.046
8 | Cc1cn([C@H]2C[C@H](N=[N+]=[N-])[C@@H](CO)O2)c(=O)[nH]c1=O [Zidovudine, AZT] | 0.965 ± 0.042 | 0.908 ± 0.052
9 | COc1ccc2c(c1)C(=O)N(CCc1ccc(S(=O)(=O)NC(=O)NC3CCCCC3)cc1)C(=O)C2(C)C [Gliquidone] | 1.05 ± 0.077 | 1.08 ± 0.049
10 | CN(C)CCN(Cc1ccc(Cl)cc1)c1ccccn1 [Chloropyramine hydrochloride] | 1.02 ± 0.045 | 1.09 ± 0.25
11 | NS(=O)(=O)Cc1noc2ccccc12 [Zonisamide] | 1.01 ± 0.036 | 1.03 ± 0.065
12 | O=C(CCCN1CCC(O)(c2ccc(Cl)cc2)CC1)c1ccc(F)cc1 [Haloperidol] | 0.662 ± 0.15 | 0.602 ± 0.052
13 | Cc1ccc(C)c(OCCCC(C)(C)C(=O)O)c1 [Gemfibrozil] | 0.951 ± 0.038 | 1.03 ± 0.032
14 | NC(=O)c1ccc[n+]([C@@H]2O[C@H](COP(=O)([O-])OP(=O)(O)OC[C@H]3O[C@@H](n4cnc5c(N)ncnc54)[C@H](O)[C@@H]3O)[C@@H](O)[C@H]2O)c1 [Nadide] | 1.01 ± 0.043 | 1.08 ± 0.028
15 | CNCCC=C1c2ccccc2C=Cc2ccccc21 [Norcyclobenzaprine] | 0.959 ± 0.045 | 0.835 ± 0.035
16 | COC(=O)CCc1ccc(OCC(O)CNC(C)C)cc1 (stereo not drawn) [Esmolol hydrochloride] | 1.04 ± 0.077 | 0.939 ± 0.08
17 | CN1C(C(=O)Nc2ccccn2)=C(O)c2ccccc2S1(=O)=O [Piroxicam] | 1.01 ± 0.098 | 1.08 ± 0.017
18 | COCCOC(=O)C1=C(C)NC(C)=C(C(=O)OC(C)C)C1c1cccc([N+](=O)[O-])c1 (stereo not drawn) [Nimodipine] | 0.986 ± 0.016 | 0.931 ± 0.019
19 | CC1(C)S[C@@H]2[C@H](NC(=O)[C@H](N)c3ccccc3)C(=O)N2[C@H]1C(=O)OC1OC(=O)c2ccccc21 (stereo partly drawn) [Talampicillin hydrochloride] | 1.09 ± 0.082 | 1.02 ± 0.085
20 | NC(=O)OCC(O)COc1ccc(Cl)cc1 (stereo not drawn) [Chlorphensin carbamate] | 1.04 ± 0.059 | 0.938 ± 0.049
21 | C[C@]12CCC(=O)C=C1C=C[C@@H]1[C@@H]2CC[C@@]2(C)[C@H]1CC[C@@]21CCC(=O)O1 [Canrenone] | 1.04 ± 0.022 | 0.999 ± 0.038
22 | CC(C)NC(=N)NC(=N)Nc1ccc(Cl)cc1 [Proguanil hydrochloride] | 0.196 ± 0.012 | 0.189 ± 0.014
23 | Cc1nnc(SCC2=C(C(=O)O)N3C(=O)[C@@H](NC(=O)Cn4cnnn4)[C@H]3SC2)s1 [Cefazolin sodium salt] | 1.07 ± 0.022 | 1.08 ± 0.03

Row | SMILES | normalised cell viability (treatment time: 3 days) | normalised cell viability (treatment time: 6 days)
24 | O=c1[nH]c(=O)n([C@H]2C[C@H](O)[C@@H](CO)O2)cc1C(F)(F)F [Trifluridine] | 0.22 ± 0.024 | 0.267 ± 0.04
25 | COc1ccc2c3c1O[C@H]1C[C@@H](O)C=C[C@@]31CCN(C)C2 [Galanthamine hydrobromide] | 1.12 ± 0.072 | 1.04 ± 0.043
26 | CCCCCCCCNC(C)C(O)c1ccc(SC(C)C)cc1 (stereo not drawn) [Suloctidil] | 0.204 ± 0.032 | 0.558 ± 0.07
27 | CC(=O)CC(c1ccc([N+](=O)[O-])cc1)c1c(O)c2ccccc2oc1=O (stereo not drawn) [Acenocoumarol] | 0.82 ± 0.27 | 0.786 ± 0.044
28 | S=c1[nH]cnc2nc[nH]c12 [Mercaptopurine] | 0.667 ± 0.062 | 0.621 ± 0.041
29 | CN(Cc1ccc(C(C)(C)C)cc1)Cc1cccc2ccccc12 [Butenafine Hydrochloride] | 1.07 ± 0.047 | 1.01 ± 0.019
30 | COc1cc(NS(=O)(=O)c2ccc(N)cc2)nc(OC)n1 [Sulfadimethoxine] | 0.958 ± 0.017 | 0.99 ± 0.058
31 | CC[N+](CC)(CC(=O)Nc1c(C)cccc1C)Cc1ccccc1 [Denatonium benzoate] | 1.01 ± 0.031 | 1.07 ± 0.019
32 | CC1(C)O[C@@H]2[C@@H](CO[C@@]3(COS(N)(=O)=O)OC(C)(C)O[C@@H]23)O1 [Topiramate] | 1.13 ± 0.26 | 1.08 ± 0.021
33 | Cc1cccc(Nc2ccncc2S(=O)(=O)NC(=O)NC(C)C)c1 [Torsemide] | 1.115 ± 0.01 | 1.11 ± 0.07
34 | NC(=O)N1c2ccccc2CC(=O)c2ccccc21 [Oxcarbazepine] | 1.06 ± 0.018 | 1.08 ± 0.029
35 | CC(C)Cn1cnc2c(N)nc3ccccc3c21 [Imiquimod] | 1.11 ± 0.044 | 1.02 ± 0.064
36 | CC(C)(Oc1ccc(Cl)cc1)C(=O)O [Clofibric acid] | 0.918 ± 0.17 | 0.996 ± 0.051
37 | CN(C)CC/C=C1\c2ccccc2CSc2ccccc21 [Dosulepin hydrochloride] | 0.161 ± 0.012 | 0.149 ± 0.0031
38 | Cn1c(=O)c2c(ncn2CC(=O)O)n(C)c1=O [Acefylline] | 1.04 ± 0.016 | 1.02 ± 0.018
39 | CC(C)(S)[C@@H](N)C(=O)O [Penicillamine] | 0.964 ± 0.074 | 1.04 ± 0.097
40 | CO[C@H]1C[C@H](O[C@H]2[C@H](C)[C@@H](O[C@@H]3O[C@H](C)C[C@H](N(C)C)[C@H]3OC(C)=O)[C@@H](C)C[C@@]3(CO3)C(=O)[C@H](C)[C@@H](OC(C)=O)[C@@H](C)[C@@H](C)OC(=O)[C@@H]2C)O[C@@H](C)[C@@H]1OC(C)=O [Troleandomycin] | 1.05 ± 0.074 | 1.12 ± 0.11
41 | COc1ccc(-c2ccc(=N)n(CCCC(=O)O)n2)cc1 [Gabazine bromide] | 1.07 ± 0.069 | 1.05 ± 0.086
42 | Cc1cc(C(=O)NNCc2ccccc2)no1 [Isocarboxazid] | 0.942 ± 0.034 | 0.901 ± 0.07
43 | COc1cc(OC)c(C(=O)CCCN2CCCC2)c(OC)c1 [Buflomedil hydrochloride] | 1.06 ± 0.089 | 1.14 ± 0.2
44 | N#CC(c1ccc(Cl)cc1)c1c(Cl)cc(-n2ncc(=O)[nH]c2=O)cc1Cl (stereo not drawn) [Diclazuril] | 0.905 ± 0.068 | 0.875 ± 0.068
45 | COc1ccc2c(c1)N(C[C@H](C)CN(C)C)c1ccccc1S2 [Methotrimeprazine maleat salt] | 0.858 ± 0.05 | 0.796 ± 0.026
46 | CCCN(CCC)C(=O)C(CCC(=O)O)NC(=O)c1ccccc1 (stereo not drawn) [Proglumide] | 1.05 ± 0.045 | 0.977 ± 0.11

Row | SMILES | normalised cell viability (treatment time: 3 days) | normalised cell viability (treatment time: 6 days)
47 | CCN1C(=O)NC(c2ccccc2)C1=O (stereo not drawn) [Ethotoin] | 1.04 ± 0.017 | 1.07 ± 0.094
48 | CN1CCC(=C2c3ccccc3CC(=O)c3sccc32)CC1 [Ketotifen fumarate] | 1.06 ± 0.12 | 1.06 ± 0.022
49 | COc1ccccc1N1CCN(CC(O)COc2cccc3ccccc23)CC1 (stereo not drawn) [Naftopidil dihydrochloride] | 0.88 ± 0.049 | 0.915 ± 0.016
50 | CN1CCCC(CC2c3ccccc3Sc3ccccc32)C1 (stereo not drawn) [Metixene hydrochloride] | 0.57 ± 0.02 | 0.69 ± 0.052
51 | CC(C)(Sc1cc(C(C)(C)C)c(O)c(C(C)(C)C)c1)Sc1cc(C(C)(C)C)c(O)c(C(C)(C)C)c1 [Probucol] | 0.942 ± 0.042 | 1.02 ± 0.041
52 | Cn1ccnc1S [Methimazole] | 1.04 ± 0.037 | 0.994 ± 0.053
53 | Nc1c(Br)cc(Br)cc1CN[C@H]1CC[C@H](O)CC1 [Ambroxol hydrochloride] | 1.15 ± 0.012 | 1.1 ± 0.077
54 | CC(C)(C(=O)c1cccnc1)c1cccnc1 [Metyrapone] | 1.02 ± 0.046 | 0.843 ± 0.16
55 | O=c1cc(-c2ccc(O)c(O)c2)oc2cc(O)cc(O)c12 [Luteolin] | 0.87 ± 0.014 | 0.914 ± 0.073
56 | CC(C)/N=c1\cc2n(-c3ccc(Cl)cc3)c3ccccc3nc-2cc1Nc1ccc(Cl)cc1 [Clofazimine] | 0.148 ± 0.0016 | 0.133 ± 0.017
57 | O=C1Cc2cc(CCN3CCN(c4nsc5ccccc45)CC3)c(Cl)cc2N1 [Ziprasidone  Hydrochloride] | 0.181 ± 0.01 | 0.206 ± 0.0036
58 | CCN[C@H]1C[C@H](C)S(=O)(=O)c2sc(S(N)(=O)=O)cc21 [Dorzolamide hydrochloride] | 0.92 ± 0.09 | 0.961 ± 0.061
59 | CC(=O)N(O)CCCCCNC(=O)CCC(=O)N(O)CCCCCNC(=O)CCC(=O)N(O)CCCCCN [Deferoxamine mesylate] | 0.305 ± 0.021 | 0.198 ± 0.011
60 | CCOC(=O)C(C)(C)Oc1ccc(Cl)cc1 [Clofibrate] | 1.05 ± 0.047 | 1.1 ± 0.074
61 | CC(C)NC[C@H](O)COc1ccc(CC(N)=O)cc1 [(S)-(-)-Atenolol] | 1.21 ± 0.34 | 1.02 ± 0.035
62 | CO[C@@]1(NC(=O)CSCC#N)C(=O)N2C(C(=O)O)=C(CSc3nnnn3C)CS[C@@H]21 [Cefmetazole sodium salt] | 1.02 ± 0.016 | 1.03 ± 0.085
63 | C[C@@H]1[C@H](O)[C@@H](C)/C=C/C=C/C=C/C=C/C=C/C=C/C=C/[C@H](O[C@@H]2O[C@H](C)[C@@H](O)[C@H](N)[C@@H]2O)C[C@@H]2O[C@](O)(C[C@@H](O)C[C@@H](O)[C@H](O)CC[C@@H](O)C[C@@H](O)CC(=O)O[C@H]1C)C[C@H](O)[C@H]2C(=O)O [Amphotericin B] | 0.944 ± 0.067 | 0.916 ± 0.077
64 | CCC(NC(C)C)C(O)c1ccc(O)c(O)c1 (stereo not drawn) [Isoetharine mesylate salt] | 1.12 ± 0.077 | 0.953 ± 0.1
65 | CCC(Cc1c(I)cc(I)c(N)c1I)C(=O)O (stereo not drawn) [Iopanoic acid] | 0.999 ± 0.036 | 1.07 ± 0.033
66 | CN1CCc2cccc3c2[C@H]1Cc1ccc(O)c(O)c1-3 [R(-) Apomorphine hydrochloride hemihydrate] | 0.654 ± 0.02 | 0.871 ± 0.026
67 | CN1CCN(C2=Nc3cc(Cl)ccc3Nc3ccccc32)CC1 [Clozapine] | 1.01 ± 0.04 | 1 ± 0.038
68 | C[C@@H]1NC(=O)NC1=O [Methylhydantoin-5-(L)] | 1 ± 0.089 | 1.07 ± 0.013
69 | CC1CCc2c(N3CCC(O)CC3)c(F)cc3c(=O)c(C(=O)O)cn1c23 (stereo not drawn) [Nadifloxacin] | 0.907 ± 0.067 | 1.01 ± 0.12
